Experimental data taken from PubChem BioAssay AID602332 (National Center for Advancing Translational Sciences (NCATS), 2012).
Several values for one entry are separate records, joined by “and”; a condition that tells them apart may be missing. Equal values may be shown once. The campaign covered roughly 420,000 compounds. About 75 (0.02%) were called active. The shares of active, inactive and inconclusive entries below differ from those in the screen. Calls follow the shape of the dose curve; as a rule, active = well fitted activation curve with a large enough effect; inconclusive = small, poorly fitted or top-dose-only effect; inactive = no such curve, though single readings can be large or run the other way. Potencies beside an inconclusive call are fits to weak or partial responses and may not hold up.

Experiment: qHTS for Inducers of the Endoplasmic Reticulum Stress Response (ERSR) in Human Glioma: qHTS; also: nearly all actives have a fitted effect of over 35% in size; as to activation: % of control where 0% means no effect
Settings: U87-MG GRP78 promoter luciferase reporter, 16 h; activation: hits give high values
From the text: Primary protein unfolding takes place for many diseases, including diabetes and hypoxia, , and triggers a reaction in the cells called ER stress response (ERSR). ). ERSR is designed as a repair mechanism, but ultimately leads to cell death via apoptosis if conditions triggering protein unfolding persist (1). The molecular clue to ERSR activation is the enhancement of the expression of key molecular chaperones, including the glucose regulated protein (GRP) 78. GRP78 is the main sensor for protein folding and the main actuator of the ERSR.
In a collaboration between the Southern Research Institute and the NIH Chemical Genomics Center, a cell based screen was developed that reliably uses GRP78 as a sensor to identify small molecules as inducers of ERSR. In resting conditions, GRP78 binds proteins and acts as a natural repressor. Once unfolded proteins are present in the ER, GRP78 releases some of the repressors and binds to the unfolded proteins. The release of the repressors executes the ERSR program. Using a human glioma cell line in a miniaturized, luminescent format, a high-throughput screen was developed to identify actuators of the ERSR.
(1) Soboloff, J. and S. A. Berger (2002). "Sustained ER Ca2+ depletion suppresses protein synthesis and induces activation-enhanced cell death in mast cells." J Biol Chem 277(16): 13812-20.
NIH Chemical Genomics Center [NCGC]
NIH Molecular Libraries Probe Centers Network [MLPCN]
Assay Submitter (PI): Maurizio Grimaldi, Southern Research Institute
Stable transfected human glioma cell line, U87-MG, are dispensed at density 1000 cells/well into Greiner white solid bottom 1536-well assay plates. Compounds are transferred via Kalypsys pin tool equipped with 1536-pin array (10nl slotted pins, V&P Scientific, San Diego, CA). The assay plates will be incubated for 16 hours and developed by adding appropriate quantities of the Promega Bright Glo reagent. The plates will be incubated at room temperature for 10 minutes prior to being transferred into a ViewLux high-throughput CCD imager (PerkinElmer), wherein end-point measurements of luminescence are acquired.
Potency is read from the fitted curve at half-maximal effect; tags tell the direction and shape of the fitted curve.

| SMILES | Potency | activation |
| --- | --- | --- |
| COC(=O)C1=C(N)Oc2cc(C)n(Cc3ccco3)c(=O)c2C1c1cccc(Cl)c1 (configuration not stated) | inconclusive: 12.6 µM [activator, single point] | – |
| CCN1C/C(=C\c2cccc([N+](=O)[O-])c2)C(=O)/C(=C/c2cccc([N+](=O)[O-])c2)C1 | – | inactive: -12% |
| O=C(Nc1ccccc1)c1cc([N+](=O)[O-])ccc1Cl | inconclusive: 0.117 µM [activator, full curve, poor fit] | – |
| Cc1nn(-c2ccccc2)c(C)c1/C=N/NC(=O)c1ccccc1O | – | inactive: 3.91% |
| O=C1C=CC(=O)c2c(O)c(N3CCN(CCO)CC3)c(Cl)c(O)c21 | – | inactive: -13.9% |
| O=C(Nc1nc2c(s1)CCCC2)c1ccc(S(=O)(=O)N2CCCc3ccccc32)cc1 | – | inactive: 3.48% |
| CCCCCC(=O)NC(=S)Nc1ccc(N2CCOCC2)cc1 | – | inactive: -0.252% |
| COc1cccc(/C=N/NC(=O)c2cccc3ccccc23)c1 | inconclusive: 50.1 µM [activator, partial curve, poor fit] | – |
| CC(=O)Nc1ccc2nc(-c3ccccn3)[nH]c2c1 | – | inactive: -6.26% |
| CCOC(=O)C1=C(C)N=c2s/c(=C3\C(=O)Nc4ccccc43)c(=O)n2C1c1ccc2c(c1)OCO2 (configuration not stated) | – | inactive: -0.987% |
| COc1ccc(OCCNC(=O)Nc2cc(F)c(F)cc2Cl)cc1 | – | inactive: -5% |
| Cc1cc(C)c(S(=O)(=O)Nc2cc(SCC(=O)O)c(O)c3ccccc23)cc1C | inconclusive: 12.6 µM [activator, single point] | – |
| Oc1ccc(/C=C/c2ccc3cccc(O)c3n2)cc1Br | inconclusive: 50.1 µM [activator, single point] | – |
| CCOC(=O)C1=CCC(c2ccccc2)N(S(=O)(=O)c2ccccc2[N+](=O)[O-])C1 (configuration not stated) | inconclusive: 28.2 µM [activator, single point] | – |
| N#Cc1nc(-c2ccccc2Cl)oc1N1CCCCC1 | inconclusive: 11.2 µM [activator, partial curve, poor fit] | – |
| CCc1cc2c(COC(=O)c3cc(S(=O)(=O)N4CCOCC4)ccc3F)cc(=O)oc2cc1O | inconclusive: 44.7 µM [activator, single point] | – |
| CCOC(=O)C1CCN(Cc2cc(Cl)c3ccccc3c2O)CC1 | active: 28.2 µM | – |
| CCN(C(=O)CN1CCN(c2cccc(Cl)c2)CC1)c1c(N)n(Cc2ccccc2)c(=O)[nH]c1=O | – | inactive: -2.06% |
| CCCn1c(SCc2ccc(Cl)cc2)nc2c1c(=O)[nH]c(=O)n2C | – | inactive: 2.82% |
| C[C@@]12CCC3[C@@](CCC4[C@@]3(C)CCC[C@@]4(C)C(=O)N3CCOCC3)(CC1=O)C2 (some centres not stated) | – | inactive: -5.89% |
| Cc1ccc(NC(=O)Nc2ccon2)cc1 | inconclusive: 28.2 µM [activator, single point] | – |
| CCOCCCNC(=O)C1CCN(c2nn3cc(-c4ccc(F)cc4)nc3s2)CC1 | inconclusive: 11.2 µM [activator, single point] | – |
| CCNC(=O)c1ccc(CSc2nc3ccccc3s2)cc1 | inconclusive: 4.47 µM [activator, full curve, poor fit] | – |

| SMILES | Potency | activation |
| --- | --- | --- |
| Cc1ccc(COc2cccc(/C=N/NC(=O)c3nnn(-c4nonc4N)c3C)c2)cc1 | inconclusive: 10 µM [activator, single point] | – |
| CCN(C(=O)CSc1nnc(C)n1Cc1ccccc1)C1CCS(=O)(=O)C1 (configuration not stated) | – | inactive: -2.4% |
| COc1ccc(C=CC(=O)c2cc(O)ccc2O)cc1 | inconclusive: 28.2 µM [activator, full curve, poor fit] | – |
| COC(=O)c1ccc(COc2ccccc2/C=C(\C#N)C(=O)Nc2c(C)cccc2C)cc1 | inconclusive: 31.6 µM [activator, partial curve, poor fit] | – |
| c1ccc(-c2nc(-c3cccnc3)cs2)cc1 | inconclusive: 10 µM [activator, single point] | – |
| CCOc1cccc(C2C=C(c3ccc4c(c3)OCO4)NC(c3ccccc3Cl)N2)c1O (configuration not stated) | inconclusive: 44.7 µM [activator, partial curve, poor fit] | – |
| Cc1c(CCOC(=O)c2ccc(N3CCOCC3)c([N+](=O)[O-])c2)sc[n+]1CC#N | – | inactive: 4.29% |
| CCCCn1c(O)c(/C=C2\C=NN=C2c2ccccc2)sc1=S | – | inactive: -11.7% |
| COc1ccc(/C=C2\COc3ccccc3C2=O)cc1OC | inconclusive: 14.1 µM [activator, single point] | – |
| Cc1cc(NC(=O)c2c(Cl)cccc2Cl)no1 | – | inactive: -4.42% |
| Cc1c(CCCl)c(Cl)n2c(nc3ccccc32)c1C#N | inconclusive: 2.51 µM [activator, full curve, poor fit] | – |
| CCOc1ccccc1N(C(=O)c1snc(C(N)=O)c1N)C(C(=O)NCc1ccccc1)c1ccc(O)cc1 (configuration not stated) | – | inactive: -6.44% |
| Cc1cccc(NC(=O)CN2C(=O)COc3ccc(S(=O)(=O)N4CCC(C)CC4)cc32)c1C | – | inactive: -4.79% |
| N/C(=N\OC(=O)c1ccccc1F)c1ccc([N+](=O)[O-])cc1 | inconclusive: 28.2 µM [activator, single point] | – |
| Cc1oc(=O)c(NC(=O)c2ccccc2)cc1C(=O)c1ccccc1 | inconclusive: 11.2 µM [activator, single point] | – |
| Cc1ccc(N2CC(C(=O)Nc3nccs3)CC2=O)cc1Cl (configuration not stated) | inconclusive: 10 µM [activator, partial curve, poor fit] | – |
| Cc1ccc(-n2nc3ccc(NC(=O)/C=C/c4ccco4)cc3n2)cc1C | inconclusive: 12.6 µM [activator, single point] | – |
| Cn1c(-c2cc3ccc(OC(=O)C(C)(C)C)cc3oc2=O)nc2ccccc21 | inconclusive: 11.2 µM [activator, single point] | – |
| CC(C)(C)n1ncc2c(=O)n(CC(=O)NCCc3ccccc3)cnc21 | inconclusive: 35.5 µM [activator, partial curve, poor fit] | – |
| CC(C)C[C@H](NC(=O)c1[nH]cnc1C(=O)N[C@@H](C)C(=O)OC(C)(C)C)C(=O)OC(C)(C)C | inconclusive: 50.1 µM [activator, single point] | – |
| O=[N+]([O-])c1ccc(-c2ccc(S(=O)(=O)NCCN3CCCC3)cc2)cc1 | – | inactive: -2.77% |
| COc1cc(-c2noc(C)c2C#CC2(O)CCCCC2)cc(OC)c1OC | inconclusive: 14.1 µM [activator, single point] | – |
| O=C(CSc1ccccc1)NC1CCCCCC1 | inconclusive: 11.2 µM [activator, single point] | – |

| SMILES | Potency | activation |
| --- | --- | --- |
| COc1ccc(S(=O)(=O)N2CCC(C(=O)N[C@H](C(=O)NCc3ccncc3)C(C)C)CC2)cc1 | – | inactive: -2.83% |
| COc1ccc(C=NNc2nc3ccccc3s2)cc1 | – | inactive: -11.8% |
| O=C(O)c1cc(O)c2c(c1)C(=O)c1cccc(O)c1C2=O | – | inactive: -1.22% and inactive: -1.67% |
| CSc1ccc(/C=C(/NC(=O)c2ccco2)C(=O)N2CCCCC2)cc1 | inconclusive: 28.2 µM [activator, single point] | – |
| C/C(=N\NC(=O)c1ccccc1Cl)c1ccccn1 | – | inactive: -4.4% |
| Cc1ccc(C)c(OC(C)C(=O)Nc2ccc(S(=O)(=O)Nc3nccs3)cc2)c1 (configuration not stated) | – | inactive: 5.99% |
| CC(=O)c1ccc2c(ccc3ccccc32)c1 | inconclusive: 2.24 µM [activator, full curve, poor fit] | – |
| COc1ccc(/C=C/C(=O)c2ccoc2)cc1 | inconclusive: 44.7 µM [activator, partial curve, poor fit] | – |
| CC(C)OC(=O)c1c(NS(=O)(=O)c2ccccc2)sc2c1CCCC2 | inconclusive: 44.7 µM [activator, single point] | – |
| Cc1ccc(C2NC(c3ccc4c(c3)OCO4)=CC(c3cc(Br)ccc3O)N2)cc1 (configuration not stated) | inconclusive: 50.1 µM [activator, single point] | – |
| S=C(Nc1ccccn1)Nc1ccccc1Cl | inconclusive: 50.1 µM [activator, single point] | – |
| CCN(CC(=O)Nc1ccc(NC(C)=O)cc1)C(=O)c1cc2ccccc2oc1=O | – | inactive: -5.03% |
| O=C(N/C(=C/c1ccccc1)C(=O)N1CCCCC1)c1ccco1 | inconclusive: 28.2 µM [activator, single point] | – |
| O=C1Cc2cc(O)ccc2O1 | inconclusive: 39.8 µM [activator, partial curve, poor fit] | – |
| CC(C)(C)OC(=O)C[C@@H]1C/C=C\C[C@@H](CC(=O)N[C@H](CO)Cc2ccccc2)C(=O)NC[C@@H](c2ccccc2)OC1=O | inconclusive: 31.6 µM [activator, single point] | – |
| COc1ccc(C(=O)C[n+]2cn(C(F)F)c3ccccc32)c(F)c1 | inconclusive: 31.6 µM [activator, partial curve, poor fit] | – |
| O=C(O)c1cccnc1Nc1cccc(C(F)(F)F)c1 | inconclusive: 16.5 µM [activator, full curve] | – |
| CCOc1ccc2nc(NCCCNS(=O)(=O)c3ccc(F)cc3)c(C#N)cc2c1 | – | inactive: -4.7% |
| CC(Oc1ccc(Cl)cc1)C(=O)Nc1ccc(S(=O)(=O)Nc2nccs2)cc1 (configuration not stated) | inconclusive: 63.1 µM [activator, single point] | – |
| On1c(-c2ccc(Cl)cc2Cl)nc2ncccc21 | inconclusive: 28.2 µM [activator, single point] | – |
| CC(=O)NC(CSC(CC(=O)c1ccco1)c1ccc(C)cc1)C(=O)O (configuration not stated) | inconclusive: 50.1 µM [activator, single point] | – |
